The supplement of paper PMC4967469
Lines with a small IC50 respond at low doses; fits outside the tested doses are given as limits. AUC is the area under the same curve over the 256-fold range up to the top dose, as a fraction: 1 means no effect, lower means more sensitive. For part of these data: A top dose marked as inferred was derived from the fitted curves, not read from the paper.

Legend:
Experiment in all cases: Viability of human cancer cell lines after 72 h of drug (GDSC screen)
[1] = compound: CCN1CCN(Cc2ccc(NC(=O)c3ccc(C)c(/C=C/c4cnc5[nH]ccc5c4OC)c3)cc2C(F)(F)F)CC1 [HG-6-64-1]; details: top dose 5.12 µM; top dose inferred
Method: (§1)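 Human cancer cell lines in 384-well plates, medium with 10% serum, drug for 72 h over a 256-fold dose range (nine 2-fold or five 4-fold steps up to the top dose). Adherent lines were fixed and stained with the nucleic acid dye Syto60, suspension lines read with resazurin; signal relative to control wells, capped at 0 and 100%. One two-parameter sigmoid per drug and line, fitted in a mixed model over all curves with the slope shared within a line.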

[2] = compound: O=C(NC(COc1ccc2[nH]c(=O)[nH]c2c1)c1ccccc1)c1cccn(Cc2ccc(F)c(F)c2)c1=O [KIN001-244]; details: top dose 20 µM; top dose inferred
Method: as §1

[3] = compound: CCc1cncnc1N1CCN(Cc2nc3ccc(C(F)(F)F)cc3[nH]2)CC1 [PF-4708671]; details: top dose 10 µM; top dose inferred
Method: as §1

[4] = compound: COc1cc2nccc(Oc3ccc(NC(=O)Nc4cc(C)on4)c(Cl)c3)c2cc1OC [AV-951]; details: top dose 0.128 µM; top dose inferred
Method: as §1

[5] = compound: CC(=O)Nc1cccc(-n2c(=O)n(C3CC3)c(=O)c3c(Nc4ccc(I)cc4F)n(C)c(=O)c(C)c32)c1 [Trametinib]; details: top dose 1 µM
Method: as §1

[6] = compound: CCNC(=O)C[C@@H]1N=C(c2ccc(Cl)cc2)c2cc(OC)ccc2-n2c(C)nnc21 [I-BET-762]; details: top dose 20 µM; top dose inferred
Method: as §1

Row | Cell Line | AUC [1] | IC50 [1] [µM] | AUC [2] | IC50 [2] [µM] | AUC [3] | IC50 [3] [µM] | AUC [4] | IC50 [4] [µM] | AUC [5] | IC50 [5] [µM] | AUC [6] | IC50 [6] [µM]
1 | BFTC-909 (kidney, adherent) | 0.839 | 3.37 | 0.948 | > 20 | 0.976 | > 10 | 0.988 | > 0.128 | 0.77 | 0.372 | 0.988 | > 20
2 | BHT-101 (thyroid, adherent) | 0.904 | > 5.12 | 0.806 | 10.6 | 0.518 | 0.702 | 0.985 | > 0.128 | 0.068 | < 0.00391 | 0.895 | > 20
3 | BHY (head and neck, adherent) | 0.655 | 0.863 | 0.845 | 14.4 | 0.963 | > 10 | 0.981 | > 0.128 | 0.762 | 0.358 | 0.925 | > 20
4 | BICR10 (head and neck, adherent) | 0.726 | 1.57 | 0.946 | > 20 | 0.983 | > 10 | 0.984 | > 0.128 | 0.804 | 0.595 | 0.984 | > 20
5 | BICR22 (head and neck, adherent) | 0.947 | > 5.12 | 0.919 | > 20 | 0.955 | > 10 | 0.974 | > 0.128 | 0.253 | 0.0108 | 0.983 | > 20
6 | BICR78 (head and neck, adherent) | 0.805 | 3.07 | 0.942 | > 20 | 0.962 | > 10 | 0.978 | > 0.128 | 0.498 | 0.0617 | 0.94 | > 20
7 | BPH-1 (prostate, adherent) | 0.733 | 1.61 | 0.927 | > 20 | 0.91 | > 10 | 0.966 | > 0.128 | 0.206 | 0.00754 | 0.47 | 1.02
8 | BT-20 (breast, adherent) | 0.923 | > 5.12 | 0.936 | > 20 | 0.935 | > 10 | 0.978 | > 0.128 | 0.77 | 0.472 | 0.981 | > 20
9 | BT-483 (breast, adherent) | 0.974 | > 5.12 | 0.873 | > 20 | 0.976 | > 10 | 0.975 | > 0.128 | 0.974 | > 1 | 0.88 | > 20
10 | BxPC-3 (pancreas, adherent) | 0.608 | 0.66 | 0.806 | 11.7 | 0.983 | > 10 | 0.981 | > 0.128 | 0.341 | 0.0213 | 0.897 | > 20
11 | C3A (liver, adherent) | 0.808 | 2.77 | 0.988 | > 20 | 0.931 | > 10 | 0.988 | > 0.128 | 0.505 | 0.0647 | 0.988 | > 20
12 | C32 (melanoma, adherent) | 0.978 | > 5.12 | 0.987 | > 20 | 0.968 | > 10 | 0.987 | > 0.128 | 0.077 | < 0.00391 | 0.97 | > 20
13 | C-33-A (cervix, adherent) | 0.61 | 0.644 | 0.871 | 19 | 0.931 | > 10 | 0.986 | > 0.128 | 0.427 | 0.0394 | 0.986 | > 20
14 | CAKI-1 (kidney, adherent) | 0.497 | 0.313 | 0.903 | > 20 | 0.915 | > 10 | 0.968 | > 0.128 | 0.708 | 0.326 | 0.919 | > 20
15 | CAL-12T (non-small cell lung carcinoma, adherent) | 0.793 | 2.64 | 0.783 | 9.49 | 0.959 | > 10 | 0.983 | > 0.128 | 0.7 | 0.247 | 0.965 | > 20
16 | CAL-27 (head and neck, adherent) | 0.905 | > 5.12 | 0.936 | > 20 | 0.971 | > 10 | 0.984 | > 0.128 | 0.245 | 0.0113 | 0.908 | > 20
17 | CAL-29 (bladder, adherent) | 0.748 | 1.76 | 0.866 | > 20 | 0.945 | > 10 | 0.984 | > 0.128 | 0.411 | 0.0349 | 0.978 | > 20
18 | CAL-33 (head and neck, adherent) | 0.744 | 1.6 | 0.891 | > 20 | 0.959 | > 10 | 0.984 | > 0.128 | 0.432 | 0.0407 | 0.965 | > 20
19 | CAL-39 (cervix, adherent) | 0.652 | 0.856 | 0.978 | > 20 | 0.972 | > 10 | 0.986 | > 0.128 | 0.335 | 0.0213 | 0.967 | > 20
20 | CAL-51 (breast, adherent) | 0.501 | 0.322 | 0.989 | > 20 | 0.704 | 2.14 | 0.99 | > 0.128 | 0.943 | > 1 | 0.982 | > 20
21 | CAL-54 (kidney, adherent) | 0.661 | 0.958 | 0.913 | > 20 | 0.953 | > 10 | 0.983 | > 0.128 | 0.826 | 0.727 | 0.896 | > 20
22 | CAL-62 (thyroid, adherent) | 0.766 | 1.8 | 0.897 | > 20 | 0.964 | > 10 | 0.988 | > 0.128 | 0.305 | 0.0183 | 0.901 | > 20

Row | Cell Line | AUC [1] | IC50 [1] [µM] | AUC [2] | IC50 [2] [µM] | AUC [3] | IC50 [3] [µM] | AUC [4] | IC50 [4] [µM] | AUC [5] | IC50 [5] [µM] | AUC [6] | IC50 [6] [µM]
23 | CAL-72 (osteosarcoma, adherent) | 0.966 | > 5.12 | 0.984 | > 20 | 0.977 | > 10 | 0.983 | > 0.128 | 0.765 | 0.429 | 0.984 | > 20
24 | CAL-78 (chondrosarcoma, adherent) | 0.757 | 2 | 0.897 | > 20 | 0.979 | > 10 | 0.986 | > 0.128 | 0.895 | > 1 | 0.962 | > 20
25 | CAL-85-1 (breast, adherent) | 0.444 | 0.216 | 0.874 | > 20 | 0.976 | > 10 | 0.98 | > 0.128 | 0.64 | 0.171 | 0.871 | > 20
26 | CAL-120 (breast, adherent) | 0.656 | 0.99 | 0.793 | 12.3 | 0.95 | > 10 | 0.974 | > 0.128 | 0.676 | 0.224 | 0.809 | 14.3
27 | CAMA-1 (breast, adherent) | 0.607 | 0.678 | 0.868 | > 20 | 0.95 | > 10 | 0.983 | > 0.128 | 0.971 | > 1 | 0.913 | > 20
28 | CCF-STTG1 (glioma, adherent) | 0.626 | 0.716 | 0.895 | > 20 | 0.984 | > 10 | 0.962 | > 0.128 | 0.967 | > 1 | 0.988 | > 20
29 | CCK-81 (large intestine, adherent) | 0.879 | 4.72 | 0.898 | > 20 | 0.92 | > 10 | 0.99 | > 0.128 | 0.988 | > 1 | 0.679 | 3.81
30 | CFPAC-1 (pancreas, adherent) | 0.695 | 1.23 | 0.947 | > 20 | 0.971 | > 10 | 0.977 | > 0.128 | 0.75 | 0.37 | 0.957 | > 20
31 | CHL-1 (melanoma, adherent) | 0.451 | 0.238 | 0.705 | 4.54 | 0.972 | > 10 | 0.987 | > 0.128 | 0.478 | 0.0547 | 0.736 | 5.62
32 | CHP-212 (neuroblastoma, adherent) | 0.603 | 0.598 | 0.985 | > 20 | 0.969 | > 10 | 0.988 | > 0.128 | 0.061 | < 0.00391 | 0.553 | 1.73
33 | CHSA0108 (chondrosarcoma, adherent) | 0.611 | 0.678 | 0.902 | > 20 | 0.969 | > 10 | 0.978 | > 0.128 | 0.836 | 0.817 | 0.761 | 8.17
34 | CHSA8926 (chondrosarcoma, adherent) | 0.867 | > 5.12 | 0.951 | > 20 | 0.98 | > 10 | 0.972 | > 0.128 | 0.733 | 0.39 | 0.98 | > 20
35 | COLO-205 (large intestine, suspension) | 0.557 | 0.457 | 0.877 | 19.6 | 0.934 | > 10 | 0.988 | > 0.128 | 0.198 | 0.00806 | 0.857 | 15.9
36 | COLO-678 (large intestine, semi-adherent) | 0.776 | 2.67 | 0.966 | > 20 | 0.975 | > 10 | 0.979 | > 0.128 | 0.467 | 0.0496 | 0.958 | > 20
37 | COLO-679 (melanoma, adherent) | 0.627 | 0.75 | 0.973 | > 20 | 0.955 | > 10 | 0.975 | > 0.128 | 0.103 | < 0.00391 | 0.982 | > 20
38 | COLO-680N (oesophagus, adherent) | 0.648 | 0.889 | 0.922 | > 20 | 0.97 | > 10 | 0.975 | > 0.128 | 0.871 | > 1 | 0.986 | > 20
39 | COLO-792 (melanoma, adherent) | 0.927 | > 5.12 | 0.974 | > 20 | 0.947 | > 10 | 0.979 | > 0.128 | 0.277 | 0.0148 | 0.971 | > 20
40 | COR-L23 (large cell lung carcinoma, adherent) | 0.818 | 2.79 | 0.819 | 11 | 0.972 | > 10 | 0.985 | > 0.128 | 0.632 | 0.143 | 0.938 | > 20
41 | COR-L105 (lung adenocarcinoma, adherent) | 0.585 | 0.577 | 0.781 | 10.3 | 0.915 | > 10 | 0.981 | > 0.128 | 0.529 | 0.0761 | 0.632 | 3.15
42 | CP50-MEL-B (melanoma, adherent) | 0.97 | > 5.12 | 0.846 | 14.3 | 0.84 | 6.77 | 0.988 | > 0.128 | 0.089 | < 0.00391 | 0.84 | 13.5
43 | CS1 (bone, adherent) | 0.764 | 2.06 | 0.716 | 5.55 | 0.971 | > 10 | 0.97 | > 0.128 | 0.825 | 0.695 | 0.973 | > 20
44 | Ca9-22 (head and neck, adherent) | 0.751 | 1.58 | 0.924 | > 20 | 0.921 | > 10 | 0.985 | > 0.128 | 0.278 | 0.0155 | 0.878 | 17.6
